# Assay results taken from article PMC4336329 (PLoS ONE, 2015).
# Among all 310,000 compounds or so, about 14,000 (4.5%) showed an effect of 50% or more. The effect is printed as a negative number. The list shows a part of the results.
# Molecular target: human ether-à-go-go-related gene (hERG) potassium channel (human, UniProt Q12809)
# Experiment: primary screen, population patch clamp on CHO cells stably expressing hERG
# 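Further: peak tail current of the secondary pulse compared with the same well before compound.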
# Chain of human ether-à-go-go-related gene (hERG) potassium channel (Q12809 whole entry, looked up): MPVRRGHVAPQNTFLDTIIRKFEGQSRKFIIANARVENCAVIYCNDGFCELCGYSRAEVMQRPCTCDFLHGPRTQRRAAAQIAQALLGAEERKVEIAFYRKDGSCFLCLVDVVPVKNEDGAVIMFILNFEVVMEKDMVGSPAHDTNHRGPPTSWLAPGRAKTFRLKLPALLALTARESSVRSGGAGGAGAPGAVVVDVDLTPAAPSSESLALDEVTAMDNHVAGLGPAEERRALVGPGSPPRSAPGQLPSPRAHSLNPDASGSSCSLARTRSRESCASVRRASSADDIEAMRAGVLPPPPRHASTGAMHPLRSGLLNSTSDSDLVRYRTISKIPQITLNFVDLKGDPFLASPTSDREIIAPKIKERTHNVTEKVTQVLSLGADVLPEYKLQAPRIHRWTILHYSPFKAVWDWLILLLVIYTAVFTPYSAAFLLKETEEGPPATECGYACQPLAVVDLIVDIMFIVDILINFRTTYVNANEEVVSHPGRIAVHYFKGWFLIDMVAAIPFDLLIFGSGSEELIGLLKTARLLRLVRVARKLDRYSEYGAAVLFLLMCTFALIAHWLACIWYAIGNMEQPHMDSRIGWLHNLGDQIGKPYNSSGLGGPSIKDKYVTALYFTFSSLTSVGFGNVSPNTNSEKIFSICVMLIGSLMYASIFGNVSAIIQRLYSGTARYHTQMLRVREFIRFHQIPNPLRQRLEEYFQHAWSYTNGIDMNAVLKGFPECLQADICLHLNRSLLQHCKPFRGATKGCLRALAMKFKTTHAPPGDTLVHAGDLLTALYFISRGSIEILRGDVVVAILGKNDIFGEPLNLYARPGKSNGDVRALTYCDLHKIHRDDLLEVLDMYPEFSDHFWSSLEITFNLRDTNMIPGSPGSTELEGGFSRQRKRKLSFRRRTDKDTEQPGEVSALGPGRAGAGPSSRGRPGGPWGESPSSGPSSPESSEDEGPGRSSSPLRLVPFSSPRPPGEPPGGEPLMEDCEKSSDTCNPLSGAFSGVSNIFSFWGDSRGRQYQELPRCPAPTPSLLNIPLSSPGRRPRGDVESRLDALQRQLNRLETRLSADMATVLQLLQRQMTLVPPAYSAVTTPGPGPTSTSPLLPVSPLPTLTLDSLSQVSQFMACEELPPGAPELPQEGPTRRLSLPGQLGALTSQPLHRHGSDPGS
row,SMILES,"hERG current change (%, negative = inhibition) at 10uM [%]"
1,Cc1ccc2c(c1)N(CCCC(=O)NCC1COc3ccccc3O1)C(=O)CO2 (stereo not shown),-12.7
2,COc1cc(C(=O)N2CCN(c3cc(Cl)ccc3Cl)CC2)cc(OC)c1OC,6.44
3,NC(=O)c1cccc(C(N)=O)n1,8.15
4,Cc1ccc(S(=O)(=O)n2nc(OC(=O)c3ccco3)cc2N)cc1,12.4
5,CC(=O)N1CC(C)Oc2ccc(S(=O)(=O)NC(CC(=O)O)c3ccc(C)cc3C)cc21 (stereo not shown),7.28
6,O=C(Cc1ccc(Cl)cc1)NNC(=S)NC(=O)c1cccs1,16
7,Cc1ccccc1OCC(=O)NCc1ccccc1,2.05
8,Cc1cc(C)c2nc(SCC(=O)Nc3ccccc3N3CCOCC3)c(C#N)cc2c1,-14.4
9,Cc1ccc(C(=O)N/C(=C/c2ccc(-c3cccc([N+](=O)[O-])c3)o2)C(=O)NCCCN(C)C)cc1,-80
10,Cc1ccc(C(=O)NCc2cccs2)cc1S(=O)(=O)N1CCCCC1,-10.6
11,Cc1cc(C)nc(N/N=C/c2c[nH]c3ccccc23)n1,17
12,CCCn1cc(C(=O)O)cn1,-9.59
13,O=c1[nH]c(=S)n(Cc2ccc(F)cc2)c(O)c1/C=N/N1CCCCCC1,-46.9
14,CN(C)S(=O)(=O)c1ccc(NC(=O)C2CC(=O)N(Cc3ccccc3Cl)C2)cc1 (stereo not shown),-0.379
15,c1csc(-c2noc(CN3CCN4CCCC4C3)n2)c1 (stereo not shown),-0.736
16,CN(c1cccc(NC(=O)c2ccc(Cl)c(S(=O)(=O)N3CCOCC3)c2)c1)S(C)(=O)=O,-15.8
17,CC1=NN(C(=O)c2ccco2)C(O)(c2ccccc2)C1 (stereo not shown),11.3
18,Cc1ccc(-n2ncc(C#N)c2/N=C/N2CCCCCC2)cc1,-26.4
19,Cc1cccn2c(=O)c(/C=C(\C#N)S(=O)(=O)c3ccccc3)c(N3CCN(Cc4ccccc4)CC3)nc12,-4.68
20,CCOC(=O)c1c(CSc2ccccc2)n(C)c2cc(Br)c(OCC(O)CNC(CO)(CO)CO)cc12 (stereo not shown),2.71
21,O=C(NCCc1ccccc1)C1CCC(CNS(=O)(=O)c2cccs2)CC1 (stereo not shown),12.8
22,N#CC(c1ccc(O)cc1)N1CCOCC1 (stereo not shown),8.57
23,CCS(=O)(=O)N1CCN(C(=O)CC(C)C)CC1,-7.56
24,Cc1cccc(NC(=O)/C(=C\c2ccco2)NC(=O)c2ccccc2)c1,-22.4
25,COC(=O)c1ccccc1NC(=O)c1cccs1,1.38
26,Cc1[nH]c2ccc(C(=O)OCC(=O)Nc3cccc(S(N)(=O)=O)c3)cc2c1C,-1.33
27,Cc1onc(-c2ccccc2)c1C(=O)NC(=S)NNC(=O)c1ccncc1,3.16
28,O=C(NCC1(O)CCCCC1)C1CCC(=O)N(Cc2ccccc2F)C1 (stereo not shown),14.2

row,SMILES,"hERG current change (%, negative = inhibition) at 10uM [%]"
1,Cc1ccc(NC(=O)CN(C)C(=O)C(C)OC(=O)CNC(=O)c2ccc(Cl)c([N+](=O)[O-])c2)cc1 (stereo not shown),-43
2,COc1ccc(-n2ccnc2SCC(=O)NCc2ccc(F)cc2)c(OC)c1,-10.7
3,CCOC(=O)c1c(C)[nH]c(NC(=O)Nc2ccc(NC(C)=O)cc2)c1C,13.4
4,COc1ccc(CCNC(=O)CCNC(=O)c2ccc(Br)cc2)cc1OC,-0.633
5,O=C1SC(Cc2ccccc2)C(=O)N1c1ccccc1 (stereo not shown),7.84
6,CCOc1ccc(N=C(C)C2=C(O)c3ccccc3C2=O)cc1,4.02
7,CCOCC(=O)Nc1nc2ccccc2s1,12.7
8,O=S(=O)(NC1=NCCCCC1)c1cccs1,3.96
9,Cc1ccc(S(=O)(=O)Nc2ccc(S(=O)(=O)N3CCCC3)cc2)cc1,-12.4
10,CCC(C)(C)NC(=O)C(OC(=O)c1ccco1)c1ccccc1OC (stereo not shown),8.13
11,CCN1CCN(CC(O)COc2ccc(C)c(C)c2)CC1.Cl (stereo not shown),-18.3
12,CCS(=O)(=O)c1nc(S(=O)(=O)c2ccc(C)cc2)c(N2CCC3(CC2)OCCO3)s1,-35.4
13,O=C(CCN1CCCCC1=O)NC1CCCN(Cc2ccc(Cl)cc2)C1 (stereo not shown),-8.14
14,CC1(C)C2CCC1(C)C(NC(=O)/C=C/c1ccccc1)C2 (stereo not shown),-11.9
15,COc1ccc(OC)c(CNC(=O)C2CCCN(S(=O)(=O)N3CC(C)CC(C)C3)C2)c1 (stereo not shown),-10.6
16,O=C(NC(=S)N1CCN(c2ccccc2)CC1)c1ccc(S(=O)(=O)N2CCOCC2)cc1,13.8
17,CC(=O)Nc1ccc(C(=O)COC(=O)CCc2ccccc2)c(F)c1,-2.03
18,O=S(=O)(CCN1CCN(C(c2ccccc2)c2ccccc2)CC1)C(F)(F)F,4.97
19,Cc1ccn2c(=O)nc(SCC(=O)NCc3ccccc3Cl)nc2c1,-8.93
20,CCOC(=O)C1CCCN(C(=O)Cn2nc(C)n3c(cc4c(OC)cccc43)c2=O)C1 (stereo not shown),-6.37
21,Cc1ccc(N2CCN(C(=O)c3cc(-c4ccc(F)cc4)[nH]c3C)CC2C)cc1 (stereo not shown),-13.3
22,CCC(C)[C@H](NS(=O)(=O)c1ccc(C)cc1)C(=O)N1CCC(C(=O)N[C@@H](Cc2ccccc2)C(=O)O)CC1 (stereo partly shown),13.3
23,CC(/C=C/c1ccccc1)=N\NC(=O)c1cc(C)[nH]n1,-11.5
24,CC1(c2cccc(Br)c2)NC(=O)N(CC(=O)NCC2CCCO2)C1=O (stereo not shown),5.98
25,CCN(CC)CCOC(=O)c1ccc(NC(=O)CCCN2C(=O)/C(=C/c3cccs3)SC2=S)cc1,-7.96
26,CCN(CC)CCOc1nnc(-c2ccc(C)cc2)c2ccccc12,-67.7
27,COC(=O)C1OC2(OC1C(=O)OC)c1ccccc1-c1ccccc12 (stereo not shown),13.5
